The supplement of paper PMC10126150
Sequences with one replicate were seen in a single cluster, so their values are uncertain.

Tested on: ATP
Test: switch fluorescence ratio, 500 uM ATP over buffer (Cy3 cluster intensity, sum of 5 cycles each) (fold (ratio)); higher = stronger signal-on switching upon ATP binding; sequences stand for … in TCGTCGGCAGCGTCAGATGTGTATAAGAGACAGTTTTTTTTTTTTTTTTTTTTTTTTT…TC
Details: aptamer strand: ATP DNA aptamer (quencher-CACCTGGGGGAGTATTGCGGAGGAAGG + anchor), 100 nM annealed; ATP concentration: 500 uM; one replicate
Summary of the method: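 For every switch-domain sequence, the fluorescence ratio is the mean of per-cluster values, each being summed target-cycle Cy3 intensity over summed buffer-cycle Cy3 intensity. Clusters outside 100-1000 RFU were excluded. On a modified Illumina MiSeq flow-cell, the Cy3-labelled switching-strand clusters were annealed to 100 nM quencher-labelled ATP aptamer, imaged in selection buffer and then after 15 min with 500 uM ATP at 22 °C. Five such cycles were run, with NaOH stripping and re-annealing between them.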
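Further: ATP exposure 15 min at 22 °C before imaging.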

## AAAATCATGA
  switch fluorescence ratio: 0.972

## CGAGTGGAAC
  switch fluorescence ratio: 1.04

## CTTGAGGTAC
  switch fluorescence ratio: 0.977

## ATTAGGCCAG
  switch fluorescence ratio: 1.05

## AGGCAGAGCG
  switch fluorescence ratio: 0.96

## TTACGCGGAT
  switch fluorescence ratio: 0.993

## GAGGTAGGGT
  switch fluorescence ratio: 0.962

## GAAGGACGTG
  switch fluorescence ratio: 0.995

## GGTTACTTT
  switch fluorescence ratio: 1.01

## GGTCCGAGCG
  switch fluorescence ratio: 1.1

## GATCTATCTG
  switch fluorescence ratio: 0.983

## GCATCAGCCA
  switch fluorescence ratio: 1.02

## GCCTGGGTCG
  switch fluorescence ratio: 0.976

## CCGATCATAG
  switch fluorescence ratio: 1.88

## GTGCACGCCC
  switch fluorescence ratio: 0.971

## CGGATGCGAG
  switch fluorescence ratio: 0.966

## TTCGCGGTT
  switch fluorescence ratio: 0.968

## ATCTTGTAGT
  switch fluorescence ratio: 1.02

## AAAATGTCTT
  switch fluorescence ratio: 0.959

## GAGGAAACCA
  switch fluorescence ratio: 1.08

## ATTGTAGATA
  switch fluorescence ratio: 0.973

## GACTCCTATT
  switch fluorescence ratio: 1.16

## TAGCTGCGTT
  switch fluorescence ratio: 0.999

## GGAGTATCAG
  switch fluorescence ratio: 0.952

## TAAGTAATCG
  switch fluorescence ratio: 1.08

## TTCTGGCAGT
  switch fluorescence ratio: 0.982

## CCTGTGTGTC
  switch fluorescence ratio: 1.06

## GTACCGCCAG
  switch fluorescence ratio: 1.02

## TGGGTCTCAC
  switch fluorescence ratio: 0.959

## TATGTGTCGG
  switch fluorescence ratio: 1.03

## ATTGTCTGTT
  switch fluorescence ratio: 0.977

## TAGGTTGCCG
  switch fluorescence ratio: 1.01

## CGGAACATCT
  switch fluorescence ratio: 1.02

## TTGACCGGGC
  switch fluorescence ratio: 0.919

## ATAACGGTTG
  switch fluorescence ratio: 0.99

## TCCGACTCCT
  switch fluorescence ratio: 1.88

## GGATACCGCT
  switch fluorescence ratio: 1.01

## TCGGCATAGG
  switch fluorescence ratio: 1.07

## TCCCTTTCAG
  switch fluorescence ratio: 1.02

## ATGATTGGTG
  switch fluorescence ratio: 1.03

## CTGAAATCTA
  switch fluorescence ratio: 1.02

## AAATGCGCTA
  switch fluorescence ratio: 1.02

## AGATATATAT
  switch fluorescence ratio: 1.02

## AATGGGCTGT
  switch fluorescence ratio: 0.979

## CGCCCAGGTT
  switch fluorescence ratio: 3.83

## ATTTAAGCGC
  switch fluorescence ratio: 1.03

## AACGGATGTG
  switch fluorescence ratio: 0.975

## ACCACCTTAA
  switch fluorescence ratio: 1.09

## ATAGGCGAGG
  switch fluorescence ratio: 1.01

## CAGGGTGTAG
  switch fluorescence ratio: 0.999

## TAATAGTCT
  switch fluorescence ratio: 0.985

## TGCTCGGTGA
  switch fluorescence ratio: 1.01

## ATGCGATATG
  switch fluorescence ratio: 1.03

## AGATGCCGTG
  switch fluorescence ratio: 1.02

## GCATCTCAAG
  switch fluorescence ratio: 1.06

## TTCGACGGTA
  switch fluorescence ratio: 1.05

## CCCGTGATGA
  switch fluorescence ratio: 1.22

## CGTAACGGGG
  switch fluorescence ratio: 0.96

## CTACGTGGCT
  switch fluorescence ratio: 1.04

## CCTTCATGGT
  switch fluorescence ratio: 0.996

## TGCATGCAAG
  switch fluorescence ratio: 0.987

## ATCTCGAGTA
  switch fluorescence ratio: 1.01

## CAGACCACGC
  switch fluorescence ratio: 1.06

## TTGCTTAGTA
  switch fluorescence ratio: 0.947

## ACCGCTGGGG
  switch fluorescence ratio: 1.83

## TGGGATGGTC
  switch fluorescence ratio: 0.918

## AATAGTGTAT
  switch fluorescence ratio: 0.952

## TCACTTATG
  switch fluorescence ratio: 0.981

## CGGTGTCGAC
  switch fluorescence ratio: 0.993

## GAGAGCCGCG
  switch fluorescence ratio: 1.02

## TAGGACTCAC
  switch fluorescence ratio: 1.18

## CACTAGAGGG
  switch fluorescence ratio: 0.99

## CCGAAGGATG
  switch fluorescence ratio: 1

## GTCTATATTA
  switch fluorescence ratio: 0.945

## CCTTTGATCG
  switch fluorescence ratio: 0.988

## AGCCGTAAGC
  switch fluorescence ratio: 1.05

## TTTCTTCGA
  switch fluorescence ratio: 1.04

## CGAGTGAATT
  switch fluorescence ratio: 0.94

## GTTGCACCTC
  switch fluorescence ratio: 0.993

## GCAATTAGTT
  switch fluorescence ratio: 1.54

## CGAGAGTGCA
  switch fluorescence ratio: 1.02

## CTTTGTACAA
  switch fluorescence ratio: 0.992

## AGCTATGCGT
  switch fluorescence ratio: 1.01

## AGCGTCTACA
  switch fluorescence ratio: 0.993

## AGCAAGAATG
  switch fluorescence ratio: 1.07

## CGGACTTAGA
  switch fluorescence ratio: 0.986

## ATTTAGCGGC
  switch fluorescence ratio: 0.928

## GACTTCATGT
  switch fluorescence ratio: 1.02

## CGGTAAGAAT
  switch fluorescence ratio: 1.01

## TTCGTTAGTT
  switch fluorescence ratio: 0.991

## GATGGTACAG
  switch fluorescence ratio: 1.02

## ACCGTGGGCC
  switch fluorescence ratio: 0.991

## TGTGAGTACC
  switch fluorescence ratio: 0.988

## AAGTGCTATG
  switch fluorescence ratio: 1.06

## CAAATATATA
  switch fluorescence ratio: 1.01

## TTTATTGATC
  switch fluorescence ratio: 1.02

## AAATTCTGTA
  switch fluorescence ratio: 0.983

## AGATTTCCGG
  switch fluorescence ratio: 1

## AATTTTAAAG
  switch fluorescence ratio: 0.972

## AAAGGCTTAA
  switch fluorescence ratio: 1.02

## ACCTCCCTAG
  switch fluorescence ratio: 1.24

## ACCGCATAA
  switch fluorescence ratio: 1.39

## CCTGGCTGGG
  switch fluorescence ratio: 1.02

## TCTCCAGGAG
  switch fluorescence ratio: 1.26

## TTCCATCGAT
  switch fluorescence ratio: 0.998

## TCGTTGGCGC
  switch fluorescence ratio: 0.941

## CAATGTGGAC
  switch fluorescence ratio: 1.07

## GCGCGTACCT
  switch fluorescence ratio: 1.05

## CGTGTTCGCC
  switch fluorescence ratio: 0.978

## AGTGACATAC
  switch fluorescence ratio: 1.44

## TAAACGAGCA
  switch fluorescence ratio: 1.06

## CTCGACCCCG
  switch fluorescence ratio: 1.02

## GGCGTTTTCT
  switch fluorescence ratio: 0.976

## CAAGTAGCTC
  switch fluorescence ratio: 1

## CAGATGCAAT
  switch fluorescence ratio: 4.46

## TGCACCCAAC
  switch fluorescence ratio: 2.02

## TATCGCAAGC
  switch fluorescence ratio: 4.09

## ATTGAATTT
  switch fluorescence ratio: 0.967

## CGCCAGAAAC
  switch fluorescence ratio: 1.11

## GCACGAACGG
  switch fluorescence ratio: 1.36

## CTGTTTGGAG
  switch fluorescence ratio: 0.995

## TAGCTACTTA
  switch fluorescence ratio: 1.05

## CAATGCAGGT
  switch fluorescence ratio: 0.98

## CTCGTATCTG
  switch fluorescence ratio: 1.05

## GCGGAGCGGA
  switch fluorescence ratio: 0.979

## GGGGTATAAA
  switch fluorescence ratio: 0.994

## ATTCTGAAAT
  switch fluorescence ratio: 1.01

## AAGCAGAGCT
  switch fluorescence ratio: 1.01

## TGGTGTCAGA
  switch fluorescence ratio: 1.04

## ATGCTAAGGA
  switch fluorescence ratio: 0.995

## CGGTAATAAG
  switch fluorescence ratio: 1.02

## ATAGAGCGCG
  switch fluorescence ratio: 1.05

## ACAGGTGAAA
  switch fluorescence ratio: 0.981

## GGTCCGAGGA
  switch fluorescence ratio: 0.954

## ACCAGATCAT
  switch fluorescence ratio: 1.01

## CCGATTAGGG
  switch fluorescence ratio: 0.989

## CACGTAGG
  switch fluorescence ratio: 1.1

## AAAAACTT
  switch fluorescence ratio: 1.01

## CGGAGCGTAA
  switch fluorescence ratio: 4.22

## CTCGCGTCTT
  switch fluorescence ratio: 1.03

## CATAGGTTGG
  switch fluorescence ratio: 0.978

## ATGCAGTGAC
  switch fluorescence ratio: 1.11

## GAGGATAGGC
  switch fluorescence ratio: 0.96

## TGTTAGCGAG
  switch fluorescence ratio: 1.03

## GTGCTGGCTT
  switch fluorescence ratio: 1.05

## TTGGACGTGC
  switch fluorescence ratio: 1.03

## TCTTTTAGAA
  switch fluorescence ratio: 1.03

## CGCTGCGGCG
  switch fluorescence ratio: 1.06

## CAATTTGCGT
  switch fluorescence ratio: 0.993

## TCGTTGTATC
  switch fluorescence ratio: 1.01

## TGGAAAGAAA
  switch fluorescence ratio: 1.06

## TGCCGCAGGA
  switch fluorescence ratio: 1.12

## GATTGGGAAA
  switch fluorescence ratio: 0.934

## TCCGAGAAAT
  switch fluorescence ratio: 3.64

## GAGGTACCTC
  switch fluorescence ratio: 0.987

## GTCCTGTGGA
  switch fluorescence ratio: 1.14

## ATAAGATCTA
  switch fluorescence ratio: 0.987

## ACTGAGGCAT
  switch fluorescence ratio: 1.11

## CTCGGTCGAA
  switch fluorescence ratio: 0.995

## CAACCGGTGT
  switch fluorescence ratio: 1.16

## GGGGACACCC
  switch fluorescence ratio: 1.02

## GCCGCCGGCG
  switch fluorescence ratio: 1.07

## ATAGTGTCGA
  switch fluorescence ratio: 1.01

## GTAGAGCCGG
  switch fluorescence ratio: 1.02

## TATTGGACCG
  switch fluorescence ratio: 0.967

## GGTTGTGGAT
  switch fluorescence ratio: 0.975

## GGCTTTACGA
  switch fluorescence ratio: 1.02

## TCACTCCAAA
  switch fluorescence ratio: 1.12

## CTAGCTAATG
  switch fluorescence ratio: 0.981

## CTTAGGTAGG
  switch fluorescence ratio: 0.978

## CGCCTTTTCA
  switch fluorescence ratio: 1.02

## GACGCAGAAG
  switch fluorescence ratio: 1.96

## GTTGGGTGTT
  switch fluorescence ratio: 0.998

## TTGCCTAACA
  switch fluorescence ratio: 1.03

## GCGTAATGGC
  switch fluorescence ratio: 1.11

## AAACAGGGGA
  switch fluorescence ratio: 1.01

## AAGGCCGAAG
  switch fluorescence ratio: 1.02

## AGGCTACCTG
  switch fluorescence ratio: 1.05

## CTCGGGAATA
  switch fluorescence ratio: 2.72

## TTAGGTCTGG
  switch fluorescence ratio: 0.997

## CAGTTTGCGA
  switch fluorescence ratio: 1.01

## TAGAGCTTTG
  switch fluorescence ratio: 1.01

## AATTGATAAG
  switch fluorescence ratio: 1.03

## TGGATTTATC
  switch fluorescence ratio: 0.997

## TTGACTACCA
  switch fluorescence ratio: 1.16

## CGTGCCGTCA
  switch fluorescence ratio: 1.07

## AGACCCCTAA
  switch fluorescence ratio: 1.05

## GCGCGCCTAA
  switch fluorescence ratio: 1.05

## CAACAGGCGC
  switch fluorescence ratio: 0.992

## CATAGGGTAC
  switch fluorescence ratio: 1.05

## TGGGGTCACA
  switch fluorescence ratio: 1.03

## TCATCACCCG
  switch fluorescence ratio: 1.02

## TGCGGATGGC
  switch fluorescence ratio: 1.02

## ACGTGATGTA
  switch fluorescence ratio: 1.02

## AGGCGCAATG
  switch fluorescence ratio: 2.09

## TTTCTATTAT
  switch fluorescence ratio: 1.03

## ACGTGGTTTA
  switch fluorescence ratio: 1

## AGTGGTCCGA
  switch fluorescence ratio: 0.982

## CTAGTAGGTA
  switch fluorescence ratio: 0.971

## CTCCAATTTT
  switch fluorescence ratio: 1.07
